# Reference: article PMC5892938
# The other results are listed elsewhere or left out. Construct or isoform of the protein are uncertain.
# Target: GST-SBP-ILF3 (Homo sapiens) (UniProt Q12906)
# Experiment: targeted RNA Bind-n-Seq
# Settings: RBNS binding buffer: 25 mM Tris pH 7.5, 150 mM KCl, 3 mM MgCl2, 0.1% Tween, 0.5 mg/mL BSA, 1 mM DTT; 27 nM protein, 750 pM RNA pool; temperature not stated; high values mean tight binding; sequences stand for … in GGGUAAAAGCGAGGUGAA…CGGGACAAGUAUUAUGGG
row,Sequence,binding signal (log2 fold change)
1,GUGUUGUGUGUUGGACUCUAACACACAGCA [gtspaired],-0.799
2,UUUUUUUUUUGAGAUGGUUUCCAUUUCCUA [tttttgagapaired],0.275
3,UUCUUCCUUCCUCCGCUGGAGGAGGGGAGA [ctspaired],-0.319
4,GGUGUGUGUGUUGGCGCCUAACACAUACAC [gtspaired],-0.552
5,GUGUGGUGUGUUGGCUUCUAACACACCAUA [gtspaired],-0.473
6,UUUUUUUUUUGAGACGGAGUCUGUCUUCUA [tttttgagapaired],0.124
7,GUGGUUGGUGUUGGUCUCUAACACCAGCCG [gtspaired],-0.546
8,UUUUUUUUUUGAGACGGCAACCGUCUUCUA [tttttgagapaired],0.302
9,UUUUUUUUUUGAGAUGGGAACCAUCUCCAG [tttttgagapaired],0.397
10,UUUUUUUUUUGAGAUGGCGGCCAUCUCCAG [tttttgagapaired],0.677
11,UUUUUUUUUUGAGAGCGGUGCGCUCUCCUA [tttttgagapaired],0.197
12,GUGUGUUGUGUUGGCGCCUAACACAACGCA [gtspaired],-0.0118
13,GUGUGUGGUGUUGGCACCUAACACCAUACA [gtspaired],-0.272
14,GGUGGUGGUGUUGGUACCUAACACCGCUAC [gtspaired],-0.369
15,UUUUUUUUUUGAGAUGGGUGCCAUCUCCUA [tttttgagapaired],0.363
16,UUUUUUUUUUGAGAGCGGGACGCUCUUCUA [tttttgagapaired],-0.036
17,UUUUUUUUUUGAGAGUGAAGCACUCUCCUG [tttttgagapaired],0.212
18,UUUUUUUUUUGAGACUGUGGCAGUUUCCUA [tttttgagapaired],0.685
19,UUUUUUUUUUGAGACUGGGGCAGUUUCCUA [tttttgagapaired],0.844
20,UUUUUUUUUUGAGAGCGUAUCGUUCUCCUG [tttttgagapaired],0.364
21,UUUUUUUUUUGAGAGCGAUGCGCUCUCCUA [tttttgagapaired],-0.221
22,GGUGGUUGUGUUGGAAUCUAACACAGCCGC [gtspaired],-0.358
23,UUUUUUUUUUGAGACUGUGACAGUCUCCUA [tttttgagapaired],0.248
24,GGUGGUGGUGUUGGUUCCUAACACCGCUAC [gtspaired],-0.683
25,UUUUUUUUUUGAGAGCGGUCCGUUCUCCGG [tttttgagapaired],0.666
26,GUGUGUGGUGUUGGCGCCUAACACCACGCG [gtspaired],-0.198

row,Sequence,binding signal (log2 fold change)
1,UUUUUUUUUUGAGAUGGUGACUAUCUCCUG [tttttgagapaired],0.711
2,GGUUGUUGUGUUGGCGUCUAACACAACAGC [gtspaired],-0.588
3,UUUUUUUUUUGAGAUGGCCACCAUCUCCAG [tttttgagapaired],0.765
4,UUUUUUUUUUGAGACGGACACUGUCUCCUG [tttttgagapaired],0.9
5,GGUUGUGGUGUUGGCUUCUAACACCGCGAC [gtspaired],-0.605
6,UUCCUCCUUCCUCCGCCGGAGGGAGGGGGA [ctspaired],-0.333
7,UUUUUUUUUUGAGACUGAACCAGUCUUCUG [tttttgagapaired],0.126
8,GUGUGGUGUGUUGGUACCUAACACAUCGCG [gtspaired],-0.653
9,GGUGUGUGUGUUGGAGUCUAACACAUAUAC [gtspaired],-0.899
10,UUUUUUUUUUGAGAGUGACGCAUUCUCCAG [tttttgagapaired],0.417
11,UUUUUUUUUUGAGAUCGAAUCGAUCUCCAG [tttttgagapaired],0.0273
12,UUUUUUUUUUGAGAUGGUAACCAUCUCCAG [tttttgagapaired],0.0427
13,UUUUUUUUUUGAGAGCGAGUCGCUCUCCUG [tttttgagapaired],0.255
14,UUUUUUUUUUGAGAGGGUCGCCCUCUCCAG [tttttgagapaired],0.697
15,UUCUCUUCUCCUCCUUGGGAGGGGAAGGGA [ctspaired],-0.472
16,GGUGUGUGUGUUGGACCCUAACACAUACGC [gtspaired],-0.0898
17,GUUGUGUGUGUUGGCUUCUAACACACGCAA [gtspaired],-0.633
18,UUUUUUUUUUGAGACCGGAACGGUCUCCGG [tttttgagapaired],0.232
19,GUGUGUGGUGUUGGCCUCUAACACCACGCA [gtspaired],-0.626
20,GUGGUGUGUGUUGGCUUCUAACACAUACUA [gtspaired],-0.837
21,GGUUGUGGUGUUGGUAUCUAACACCGCGAC [gtspaired],-0.583
22,GGUGUGUGUGUUGGACCCUAACACACAUAC [gtspaired],-0.583
23,UUUUUUUUUUGAGACCGAAACGGUUUCCUA [tttttgagapaired],0.221
24,GGUUGUGGUGUUGGUGCCUAACACCGCGAC [gtspaired],-0.287
25,UUUUUUUUUUGAGAGUGAUACACUCUCCGG [tttttgagapaired],-0.0683
26,UUUUUUUUUUGAGAUCGUAUCGAUCUUCUA [tttttgagapaired],-0.322

row,Sequence,binding signal (log2 fold change)
1,UUUUUUUUUUGAGACUGGAACAGUCUUCUA [tttttgagapaired],-0.0523
2,UUUUUUUUUUGAGACGGCGUCCGUCUCCAG [tttttgagapaired],0.915
3,UUUUUUUUUUGAGACGGGGACUGUCUCCUA [tttttgagapaired],0.825
4,UUUUUUUUUUGAGACUGUAACAGUCUCCUG [tttttgagapaired],0.692
5,UUUUUUUUUUGAGACUGUAGCAGUCUUCUG [tttttgagapaired],0.742
6,GUGUGUGGUGUUGGAAUCUAACACCGCGCA [gtspaired],-0.485
7,GUGUGGUGUGUUGGCCUCUAACACACCGCG [gtspaired],-0.843
8,GUGGUGUGUGUUGGCUCCUAACACACGCCG [gtspaired],-0.454
9,GUGGUGUGUGUUGGCGCCUAACACACGCCA [gtspaired],-0.143
10,UUUUUUUUUUGAGAUGGGGACCAUCUUCUA [tttttgagapaired],0.15
11,UUUUUUUUUUGAGACUGAAGCAGUCUCCUG [tttttgagapaired],0.447
12,GUGUUGUGUGUUGGCACCUAACACACAACG [gtspaired],-0.252
13,UUUUUUUUUUGAGACGGGUGCCGUCUCCUA [tttttgagapaired],0.412
14,GUGUGUUGUGUUGGUGCCUAACACAACGCA [gtspaired],-0.894
15,UUUUUUUUUUGAGAUGGGUACUAUCUCCAG [tttttgagapaired],0.623
16,GGUGGUGGUGUUGGCGCCUAACACCGCCGC [gtspaired],-0.259
17,UUUUUUUUUUGAGAACGAACCGUUCUCCUA [tttttgagapaired],0.0225
18,GUGUGGUGUGUUGGUUCCUAACACACUAUA [gtspaired],-0.473
19,UUUUUUUUUUGAGAGCGGGACGUUCUCCGG [tttttgagapaired],0.39
20,GUUGUGUGUGUUGGAGCCUAACACACGCAA [gtspaired],-0.406
21,UUUUUUUUUUGAGAUGGGUACCAUUUCCGG [tttttgagapaired],0.56
22,UUUUUUUUUUGAGAGGGGCACCCUCUCCGG [tttttgagapaired],0.661
23,UUUUUUUUUUGAGACGGAAUCUGUCUUCUA [tttttgagapaired],0.148
24,GGUGGUGGUGUUGGAUCCUAACACCGCUAC [gtspaired],-0.964
25,UUUUUUUUUUGAGACGGCAUCCGUCUCCUG [tttttgagapaired],0.611
26,UUUUUUUUUUGAGAGGGGAUCCUUCUCCGG [tttttgagapaired],0.00989

row,Sequence,binding signal (log2 fold change)
1,GGUUGUGGUGUUGGACCCUAACACCGCAGC [gtspaired],-0.785
2,UUUUUUUUUUGAGACCGAUCCGGUCUCCUA [tttttgagapaired],0.259
3,UUUUUUUUUUGAGACUGUGACAGUUUCCGG [tttttgagapaired],0.685
4,GUGUGUGGUGUUGGAACCUAACACCGCACG [gtspaired],-1.01
5,UUUUUUUUUUGAGAUGGUCUCCAUCUCCGG [tttttgagapaired],0.227
6,UUUUUUUUUUGAGACGGGUACCGUCUCCUG [tttttgagapaired],0.242
7,UUUUUUUUUUGAGAGCGACACGUUCUCCUA [tttttgagapaired],0.206
8,UUCCUUCUUCCUCCGUGGGAGGGAGAGGGA [ctspaired],-0.375
9,UUUUUUUUUUGAGAGUGAGACACUCUUCUA [tttttgagapaired],0.0182
10,UUUUUUUUUUGAGAGCGACGCGCUCUUCUA [tttttgagapaired],0.188
11,UUUUUUUUUUGAGACCGCAACGGUCUUCUG [tttttgagapaired],0.719
12,GUUGGUGGUGUUGGUCCCUAACACCACCGA [gtspaired],-0.587
13,UUUUUUUUUUGAGAACGAGUCGUUCUCCGG [tttttgagapaired],0.199
14,GUGUGUGGUGUUGGCACCUAACACCGCGCA [gtspaired],-0.626
15,UUUUUUUUUUGAGACUGCUACAGUUUCCUG [tttttgagapaired],0.823
16,UUUUUUUUUUGAGACGGAAACCGUUUCCAG [tttttgagapaired],0.559
17,GGUGUUGGUGUUGGAGUCUAACACCGAUAC [gtspaired],-0.59
18,GUGUGGUGUGUUGGCCCCUAACACAUCGCA [gtspaired],0.0119
19,UUUUUUUUUUGAGACUGCAACAGUUUCCGG [tttttgagapaired],0.666
20,GUUGGUGGUGUUGGUGCCUAACACCAUCAA [gtspaired],-0.0456
21,UUUUUUUUUUGAGACUGUUUCAGUCUCCUA [tttttgagapaired],-0.237
22,UUUUUUUUUUGAGAUGGAGGCCAUCUUCUG [tttttgagapaired],0.328
23,UUUUUUUUUUGAGAUGGGGUCCGUCUCCUG [tttttgagapaired],0.882
24,UUUUUUUUUUGAGAAGGGGUCCUUCUCCUG [tttttgagapaired],0.663
25,UUUUUUUUUUGAGAGGGAUACCCUCUUCUA [tttttgagapaired],-0.00194
